From PMC9911399, “Two distinct binding modes provide the RNA-binding protein RbFox with extraordinary sequence specificity”
Positions count from the first letter of the chain named. Some of the results follow.

T1: RBFOX1 RRM (Homo sapiens, UniProt Q9NWB1 109-208)
T1 sequence: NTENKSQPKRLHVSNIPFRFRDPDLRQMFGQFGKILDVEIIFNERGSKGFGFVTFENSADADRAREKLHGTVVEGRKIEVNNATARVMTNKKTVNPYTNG

B1: UAGUGUG (DNA:RNA)
RNA: GGGAGACCGGAAUUCAGAUUGUCCUAGUGUGUUAAAUCCCGUCGUAGCCACCA
DNA 1: CAATCTGAATTCCGGTCTCCC
DNA 2: TGGTGGCTACGACGGGATT
B2: UACGCAU (DNA:RNA)
RNA: B1 RNA with G27C, U28G, G29C, U30A, G31U
DNA 1: CAATCTGAATTCCGGTCTCCC
DNA 2: TGGTGGCTACGACGGGATT
B3: AACUUCG (DNA:RNA)
RNA: B1 RNA with U25A, G27C, G29U, U30C
DNA 1: CAATCTGAATTCCGGTCTCCC
DNA 2: TGGTGGCTACGACGGGATT
B4: UGUGGCG (DNA:RNA)
RNA: B1 RNA with A26G, G27U, U28G, U30C
DNA 1: CAATCTGAATTCCGGTCTCCC
DNA 2: TGGTGGCTACGACGGGATT
B5: UGUGGAC (DNA:RNA)
RNA: B1 RNA with A26G, G27U, U28G, U30A, G31C
DNA 1: CAATCTGAATTCCGGTCTCCC
DNA 2: TGGTGGCTACGACGGGATT
B6: AAAGAUU (DNA:RNA)
RNA: B1 RNA with U25A, G27A, U28G, G29A, G31U
DNA 1: CAATCTGAATTCCGGTCTCCC
DNA 2: TGGTGGCTACGACGGGATT
B7: GGGUUCC (DNA:RNA)
RNA: B1 RNA with U25G, A26G, G29U, U30C, G31C
DNA 1: CAATCTGAATTCCGGTCTCCC
DNA 2: TGGTGGCTACGACGGGATT
B8: GAUCCGA (DNA:RNA)
RNA: B1 RNA with U25G, G27U, U28C, G29C, U30G, G31A
DNA 1: CAATCTGAATTCCGGTCTCCC
DNA 2: TGGTGGCTACGACGGGATT
B9: CAUCGGG (DNA:RNA)
RNA: B1 RNA with U25C, G27U, U28C, U30G
DNA 1: CAATCTGAATTCCGGTCTCCC
DNA 2: TGGTGGCTACGACGGGATT
B10: UGCAGCG (DNA:RNA)
RNA: B1 RNA with A26G, G27C, U28A, U30C
DNA 1: CAATCTGAATTCCGGTCTCCC
DNA 2: TGGTGGCTACGACGGGATT
B11: CAUUCGU (DNA:RNA)
RNA: B1 RNA with U25C, G27U, G29C, U30G, G31U
DNA 1: CAATCTGAATTCCGGTCTCCC
DNA 2: TGGTGGCTACGACGGGATT
B12: GAAUCUC (DNA:RNA)
RNA: B1 RNA with U25G, G27A, G29C, G31C
DNA 1: CAATCTGAATTCCGGTCTCCC
DNA 2: TGGTGGCTACGACGGGATT
B13: GUCGGGG (DNA:RNA)
RNA: B1 RNA with U25G, A26U, G27C, U28G, U30G
DNA 1: CAATCTGAATTCCGGTCTCCC
DNA 2: TGGTGGCTACGACGGGATT
B14: CAGUUCC (DNA:RNA)
RNA: B1 RNA with U25C, G29U, U30C, G31C
DNA 1: CAATCTGAATTCCGGTCTCCC
DNA 2: TGGTGGCTACGACGGGATT
B15: GCUUACC (DNA:RNA)
RNA: B1 RNA with U25G, A26C, G27U, G29A, U30C, G31C
DNA 1: CAATCTGAATTCCGGTCTCCC
DNA 2: TGGTGGCTACGACGGGATT
B16: GCGUCCC (DNA:RNA)
RNA: B1 RNA with U25G, A26C, G29C, U30C, G31C
DNA 1: CAATCTGAATTCCGGTCTCCC
DNA 2: TGGTGGCTACGACGGGATT
B17: UUUACCU (DNA:RNA)
RNA: B1 RNA with A26U, G27U, U28A, G29C, U30C, G31U
DNA 1: CAATCTGAATTCCGGTCTCCC
DNA 2: TGGTGGCTACGACGGGATT
B18: AAUUGGA (DNA:RNA)
RNA: B1 RNA with U25A, G27U, U30G, G31A
DNA 1: CAATCTGAATTCCGGTCTCCC
DNA 2: TGGTGGCTACGACGGGATT
B19: UUUUAAC (DNA:RNA)
RNA: B1 RNA with A26U, G27U, G29A, U30A, G31C
DNA 1: CAATCTGAATTCCGGTCTCCC
DNA 2: TGGTGGCTACGACGGGATT
B20: UAGAAAC (DNA:RNA)
RNA: B1 RNA with U28A, G29A, U30A, G31C
DNA 1: CAATCTGAATTCCGGTCTCCC
DNA 2: TGGTGGCTACGACGGGATT
B21: CACACUC (DNA:RNA)
RNA: B1 RNA with U25C, G27C, U28A, G29C, G31C
DNA 1: CAATCTGAATTCCGGTCTCCC
DNA 2: TGGTGGCTACGACGGGATT
B22: UGCGUAC (DNA:RNA)
RNA: B1 RNA with A26G, G27C, U28G, G29U, U30A, G31C
DNA 1: CAATCTGAATTCCGGTCTCCC
DNA 2: TGGTGGCTACGACGGGATT
B23: UACGUCA (DNA:RNA)
RNA: B1 RNA with G27C, U28G, G29U, U30C, G31A
DNA 1: CAATCTGAATTCCGGTCTCCC
DNA 2: TGGTGGCTACGACGGGATT
B24: GCUUUGG (DNA:RNA)
RNA: B1 RNA with U25G, A26C, G27U, G29U, U30G
DNA 1: CAATCTGAATTCCGGTCTCCC
DNA 2: TGGTGGCTACGACGGGATT
B25: GUGAGCA (DNA:RNA)
RNA: B1 RNA with U25G, A26U, U28A, U30C, G31A
DNA 1: CAATCTGAATTCCGGTCTCCC
DNA 2: TGGTGGCTACGACGGGATT
B26: UUACAAC (DNA:RNA)
RNA: B1 RNA with A26U, G27A, U28C, G29A, U30A, G31C
DNA 1: CAATCTGAATTCCGGTCTCCC
DNA 2: TGGTGGCTACGACGGGATT
B27: UGAUUUG (DNA:RNA)
RNA: B1 RNA with A26G, G27A, G29U
DNA 1: CAATCTGAATTCCGGTCTCCC
DNA 2: TGGTGGCTACGACGGGATT
B28: UGACGUA (DNA:RNA)
RNA: B1 RNA with A26G, G27A, U28C, G31A
DNA 1: CAATCTGAATTCCGGTCTCCC
DNA 2: TGGTGGCTACGACGGGATT
B29: UACUCUA (DNA:RNA)
RNA: B1 RNA with G27C, G29C, G31A
DNA 1: CAATCTGAATTCCGGTCTCCC
DNA 2: TGGTGGCTACGACGGGATT
B30: GGUUACA (DNA:RNA)
RNA: B1 RNA with U25G, A26G, G27U, G29A, U30C, G31A
DNA 1: CAATCTGAATTCCGGTCTCCC
DNA 2: TGGTGGCTACGACGGGATT
B31: AAUACGA (DNA:RNA)
RNA: B1 RNA with U25A, G27U, U28A, G29C, U30G, G31A
DNA 1: CAATCTGAATTCCGGTCTCCC
DNA 2: TGGTGGCTACGACGGGATT

target: T1, RBFOX1 RRM; assay: EMSA; HiTS-Eq, 1 nM pool, 10 min; buffer printed only for the single-RNA assays: 10 mM Tris pH 7.5, 150 mM NaCl, 3.4 mM EDTA, 0.001% NP-40, 30 C; conditions: tags: His6 N-terminal (pET28a); label: 5' 32P
Summary of the method: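 Purified RbFox RRM, wild type or mutant, was incubated for 10 min in 50 µL with 1 nM of a 5′-radiolabelled RNA pool carrying 7 randomized nucleotides, whose flanks were annealed to DNA oligonucleotides, over a series of increasing protein concentrations. Unbound RNA was resolved on 8% native PAGE, cut out, reverse-transcribed, barcoded by PCR and sequenced on an Illumina HiSeq 2500. Relative association constants were derived from changes in read counts for each RNA species versus the control reaction and normalised to the cognate motif.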

Binder | binding signal
B1 | 0.0215 KA relative to UGCAUGU
B2 | 0.0127 KA relative to UGCAUGU
B3 | 0.0158 KA relative to UGCAUGU
B4 | 0.0248 KA relative to UGCAUGU
B5 | 0.00524 KA relative to UGCAUGU
B6 | 0.00371 KA relative to UGCAUGU
B7 | 0.0348 KA relative to UGCAUGU
B8 | 0.0107 KA relative to UGCAUGU
B9 | 0.00521 KA relative to UGCAUGU
B10 | 0.0211 KA relative to UGCAUGU
B11 | 0.00851 KA relative to UGCAUGU
B12 | 0.0111 KA relative to UGCAUGU
B13 | 0.0181 KA relative to UGCAUGU
B14 | 0.00472 KA relative to UGCAUGU
B15 | 0.00633 KA relative to UGCAUGU
B16 | 0.00975 KA relative to UGCAUGU

Binder | binding signal
B17 | 0.00424 KA relative to UGCAUGU
B18 | 0.00265 KA relative to UGCAUGU
B19 | 0.00589 KA relative to UGCAUGU
B20 | 0.0111 KA relative to UGCAUGU
B21 | 0.00343 KA relative to UGCAUGU
B22 | 0.0181 KA relative to UGCAUGU
B23 | 0.00559 KA relative to UGCAUGU
B24 | 0.0206 KA relative to UGCAUGU
B25 | 0.0183 KA relative to UGCAUGU
B26 | 0.00317 KA relative to UGCAUGU
B27 | 0.0276 KA relative to UGCAUGU
B28 | 0.0165 KA relative to UGCAUGU
B29 | 0.00265 KA relative to UGCAUGU
B30 | 0.00439 KA relative to UGCAUGU
B31 | 0.00285 KA relative to UGCAUGU
